This is an account of results in PubChem BioAssay AID1159614 (National Center for Advancing Translational Sciences (NCATS), 2016).

About 65 (0.1%) of roughly 45,000 compounds were called active. Calls come from the whole dose curve; as a rule, active = well fitted activation curve with a large enough effect; inconclusive = small, poorly fitted or top-dose-only effect; inactive = no such curve, though single readings can be large or run the other way. Some of the results follow.

The test has as its target Galactocerebrosidase (Homo sapiens) (UniProt P54803). In words: A Novel Cell-Based Assay to Identify Small Molecules for B -Galactocerebrosidase. Note: 0% is about no effect; nearly all actives have a fitted effect of over 65% in size. As to conditions: 145M-Twi-hGALC-G270D cells (Twitcher mouse brain line with human GALC G270D), HMU-beta-Gal fluorescence, 48 h; series mostly up to 57.5 µM; activation: at the top concentration. The procedure, abridged: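 Brain-derived Twitcher mouse 145M-Twi cells stably expressing human GALC-G270D or wild-type GALC, treated live, then residual GALC activity read by fluorescence of HMU-b-Gal substrate (0.1 mM final) in citrate-phosphate buffer pH 5.2 with sodium taurocholate. Signal increase indicates enhancement.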
UniProt P54803, sequence (P54803 whole entry, looked up): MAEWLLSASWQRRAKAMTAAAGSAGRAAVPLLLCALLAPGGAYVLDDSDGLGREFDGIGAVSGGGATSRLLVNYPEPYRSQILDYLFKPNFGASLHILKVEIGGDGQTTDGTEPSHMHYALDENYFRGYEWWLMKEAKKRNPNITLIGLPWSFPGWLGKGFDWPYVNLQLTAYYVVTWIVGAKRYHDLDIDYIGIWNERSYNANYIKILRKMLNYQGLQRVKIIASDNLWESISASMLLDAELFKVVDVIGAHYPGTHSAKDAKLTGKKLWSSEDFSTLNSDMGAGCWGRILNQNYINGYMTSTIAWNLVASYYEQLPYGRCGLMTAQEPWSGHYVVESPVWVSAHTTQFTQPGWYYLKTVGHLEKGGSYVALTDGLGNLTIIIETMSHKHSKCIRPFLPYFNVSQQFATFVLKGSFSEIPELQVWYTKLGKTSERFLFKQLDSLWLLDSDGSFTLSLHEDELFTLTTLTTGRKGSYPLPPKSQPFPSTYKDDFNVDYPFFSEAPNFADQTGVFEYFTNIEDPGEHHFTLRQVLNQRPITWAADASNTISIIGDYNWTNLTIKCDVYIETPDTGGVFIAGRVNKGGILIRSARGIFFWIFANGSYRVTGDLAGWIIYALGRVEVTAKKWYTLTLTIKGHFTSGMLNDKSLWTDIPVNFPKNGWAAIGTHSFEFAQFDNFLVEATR
For `CC(C)(C)c1ccc(S(=O)(=O)c2cn(CC(=O)Nc3ccccc3)c3ccccc3c2=O)cc1`, the “activation” value is inactive: -10.1%. Regarding `Cc1cccc(CCNC(=O)c2cnc3c(C)cccn3c2=O)c1`, the “activation” value was inactive: -7.56%.

Take `Cc1ccc(CNC(=O)c2ccc3c(c2)N(Cc2ccccc2)C(=O)c2ccccc2S3(=O)=O)cc1`: the “activation” value is inactive: -9.96%. The value for `COc1ccccc1CNC(=O)Cc1csc2nc(-c3ccccc3)cn12` was inactive: -14.2%.

`COc1ccc(OC)c(CNC(=O)Cn2nc(C)c3nn(-c4ccc(Cl)cc4)c(C)c3c2=O)c1`: the “activation” value was inactive: -15.6%. On to `COc1ccc2oc(=O)c(-c3cn4c(n3)sc3cc(OC)ccc34)cc2c1`, for which the “activation” value is inactive: -22.2%. As for `COc1ccc2c(Sc3ccccc3)c(C(=O)NCCCN3CCCCC3)[nH]c2c1`, the “activation” value is inactive: -9.33%. On to `COc1ccc(/C=C/C(=O)Nc2nc3n(n2)C(c2ccccc2)C=C(c2ccc(Cl)cc2)N3)cc1` (configuration not stated), for which the “activation” value is inactive: -7.28%. The value for `COc1ccc(CNC(=O)CCNS(=O)(=O)c2cccc3nsnc23)cc1` was inactive: -5.25%. The value for `CCOc1ccccc1CNC(=O)c1ccc(NC(=O)N2CCSc3ncccc32)cc1` was inactive: -9.61%. On to `Fc1ccc(-n2ncc3c(N4CCC(Cc5ccccc5)CC4)ncnc32)cc1`, for which the “activation” value was inactive: -6.2%. In the case of `Clc1ccc(N2CCN(c3ncnc4c3cnn4-c3ccccc3)CC2)cc1Cl`, the “activation” value is inactive: -18.6%. Consider `COc1ccc(NC(=O)c2cc(S(=O)(=O)N3CCCCCC3)cn2C)cc1Cl`, for which the “activation” value was inactive: -3.85%.

Turning to `CCc1ccccc1NC(=O)Nc1nnc(N(C)Cc2ccccc2)s1`, the “activation” value was inactive: -10.1%.

As to `C[C@@H](CN1CC(=O)NC(=O)C1)N1CC(=O)NC(=O)C1`, the “activation” value was inactive: -6.3%.

`O=C(C1CCCN(S(=O)(=O)c2ccc(Br)s2)C1)N1CCN(c2cccc(Cl)c2)CC1` (configuration not stated): the “activation” value was inactive: -16.2%. For the molecule `Cc1cccc(N2CCN(S(=O)(=O)c3ccc(-c4cc(C(F)(F)F)on4)s3)CC2)c1C`, the “activation” value was inactive: 0.244%.

With `Cc1ccccc1OCC(=O)Nc1ccc2nc(SCC(=O)N3CCc4ccccc43)sc2c1`, the “activation” value is inactive: 9.03%. Turning to `COc1ccc(Cl)cc1NC(=O)c1nnn(Cc2cccc(C(F)(F)F)c2)c1N`, the “activation” value was inactive: -14.4%. Consider `COc1ccc2c(c1)c1c(c(=O)n(-c3ccc(C)cc3)c(=O)n1CC(=O)NCc1ccc(C)cc1)n2C`, for which the “activation” value is inactive: -10.5%. For the molecule `COc1ccc(OCC(=O)Nc2cc(-c3nc4ccccc4s3)ccc2C)cc1`, the “activation” value is inactive: -7.89%. The result for `CCC(C)Sc1oc(-c2ccco2)nc1S(=O)(=O)c1ccc(C)cc1` (configuration not stated) reads inactive: -38.9%. Consider `OCc1cc(C(O)CNCCCCCCOCCCCc2ccccc2)ccc1O` (configuration not stated), for which the “activation” value is inactive: -10.9%. In the case of `COc1cccc(C2C(C(=O)Nc3ccc(Cl)cc3)=C(C)Nc3nc4ccccc4n32)c1` (configuration not stated), the “activation” value was inactive: 11.6%. With `COc1ccccc1C1Nc2c(sc3nc(C)cc(C)c23)C(=O)N1c1ccccc1` (configuration not stated), the “activation” value was inactive: -7.77%. Turning to `Cc1ccc(CNc2ncnc3c2cnn3-c2ccc(Cl)cc2)cc1`, the “activation” value is inactive: -3.18%. For `COc1cccc(CC(=O)Nc2ccc(-c3nc4ccccc4s3)cc2)c1`, the “activation” value is inactive: -12.7%.
